This experiment concerns Drosophila ezoana. Briefly: attraction index (odor vs solvent trap) (index (-1 to 1)); higher = more attraction to the odorant. As to conditions: odor dose: 10^-2 dilution in mineral oil. The method, then: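 Two-choice trap assay (odor 10^-2 in mineral oil vs solvent, 20 flies, 24 h) run in a Percival incubator at test temperatures of 10-35 °C and 70% humidity, with flies reared at 18 or 25 °C. Attraction index = (O-C)/n; 10 replicates. The paper excluded the 10 and 35 °C tests because of impaired locomotion.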

[1] abbreviates: test temperature 15 °C, rearing temperature 18 °C.
[2] abbreviates: test temperature 15 °C, rearing temperature 25 °C.
The mark [3] stands for this setting: test temperature 20 °C, rearing temperature 18 °C.
Where [4] appears, read: test temperature 20 °C, rearing temperature 25 °C.
Where [5] appears, read: test temperature 25 °C, rearing temperature 18 °C.
Setting [6] is: test temperature 25 °C, rearing temperature 25 °C.
The mark [7] stands for this setting: test temperature 30 °C, rearing temperature 18 °C.
Setting [8] is: test temperature 30 °C, rearing temperature 25 °C.

± gives the standard deviation of the averaged measurements. The list shows a part of the results.

These results are taken from the supplement of paper PMC10477191.

Consider `CC(C)OC(=O)c1ccccc1` [isopropyl benzoate], for which the attraction index was -0.11 ± 0.45 under setting [1]; 0.0971 ± 0.47 under setting [2]; -0.102 ± 0.32 under setting [3]; 0.184 ± 0.41 under setting [4]; 0.181 ± 0.44 under setting [5]; -0.0366 ± 0.54 under setting [6]. Besides, the attraction index was -0.0718 ± 0.38 under setting [7] and 0.0764 ± 0.38 under setting [8].

Consider `COc1ccccc1O` [guaiacol], for which the attraction index by setting is: under setting [1], -0.151 ± 0.076; under setting [2], -0.373 ± 0.64; under setting [3], -0.369 ± 0.41; under setting [4], -0.556 ± 0.36; under setting [5], -0.266 ± 0.33; under setting [6], -0.151 ± 0.5. In addition, the attraction index was determined as 0.374 ± 0.73 under setting [7] and 0.333 ± 0.32 under setting [8].

In the case of `COC(=O)c1ccccc1O` [methyl salicylate], the attraction index under setting [1] was 0.109 ± 0.17; the attraction index under setting [2] amounted to 0.186 ± 0.8; the attraction index under setting [3] was found to be 0.253 ± 0.38; the attraction index under setting [4] is 0.434 ± 0.24; the attraction index under setting [5] turned out to be 0.117 ± 0.58; the attraction index under setting [6] was found to be 0.179 ± 0.62. Moreover, the attraction index by setting is: under setting [7], -0.15 ± 0.32; under setting [8], -0.286 ± 0.2.
